# Experimental data reported in PubChem BioAssay AID686979 (National Center for Advancing Translational Sciences (NCATS), 2013).
# Values joined by “and” are separate entries in the source; they are usually repeats but may differ in a detail not shown here. Identical values can stand only once. About 50,000 (12%) of roughly 420,000 compounds were called active. The inconclusive results got no clear call from the source; some entries with a clear call stand among them for comparison. The call rests on the fitted dose curve; in most records, active means well fitted inhibition curve with a large enough effect; inconclusive means small, poorly fitted or top-dose-only effect; inactive means flat fitted curve, though single readings scatter. Potencies beside an inconclusive call are fits to weak or partial responses and may not hold up.
# Test: qHTS for Inhibitors of human tyrosyl-DNA phosphodiesterase 1 (TDP1): qHTS in cells in presence of CPT; further: nearly all actives have a fitted effect of over 55% in size
# Settings: chicken DT40 Tdp1-/-;hTDP1 cells + 20 nM CPT, ATP luminescence, 48 h; series mostly up to 46.2 µM
# Method in brief: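 Cell growth measured by CellTiter-Glo luminescence after a minimum 48 h, 37 C compound exposure with 20 nM CPT in Tdp1-knockout DT40 cells stably expressing hTDP1, seeded 400/well; qHTS titration format.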
# Potency means the concentration at half of the fitted maximal effect; tags describe the fitted curve by direction and shape.
row,SMILES,Potency
1,COc1ccccc1NC(=O)CCNS(=O)(=O)c1ccc2c(c1)CCN2C(=O)C1CC1,"inconclusive: 29.1 µM [inhibitor, single point]"
2,CC(OC(=O)Cc1ccccc1F)C(=O)Nc1ccc(Cl)cn1 (stereo not given),inactive
3,CCN(CC(=O)NCc1ccc(F)cc1)C(=O)C(C)Oc1cccc(Cl)c1 (stereo not given),"inconclusive: 29.1 µM [inhibitor, single point]"
4,Cc1nn(C)cc1C(C)Nc1nc2nonc2nc1N1CCCCC1 (stereo not given),inactive
5,CCOc1ccccc1NC(=O)CSc1nc2ccccc2nc1N1CCCC1,"inconclusive: 25.9 µM [inhibitor, single point]"
6,Cc1ccc(C(=O)N2CCCC(CCC(=O)N3CCN(c4ccccn4)CC3)C2)s1 (stereo not given),"inconclusive: 25.9 µM [inhibitor, single point]"
7,C[C@@H](O)C#Cc1ccc2c(c1)O[C@H](CN(C)C(=O)Nc1ccccc1)[C@@H](C)CN([C@@H](C)CO)S2(=O)=O,inactive
8,COc1cccc(NC(=O)CN(C)C(=O)c2cc(C)oc2C)c1,inactive
9,O=C(Oc1ccccc1)c1ccccc1C(=O)Oc1ccccc1,inactive
10,CCCCNC(=O)C1(C)CCCCN1C(=O)c1cccs1 (stereo not given),"inconclusive: 25.9 µM [inhibitor, single point]"
11,CCOC(=O)N1CCN(S(=O)(=O)c2ccc(C(=O)Nc3nc4ccc(F)cc4s3)cc2)CC1,active: 8.2 µM
12,COc1cc(OC)cc(-c2oc(=O)c3cc(OC)c(OC)cc3c2C#CCCCO)c1,"inconclusive: 16.4 µM [inhibitor, partial curve, poor fit]"
13,CCN(Cc1ccccc1)S(=O)(=O)c1ccc(C(=O)Nc2nnc(C3CC3)o2)cc1,"inconclusive: 23.1 µM [inhibitor, single point]"
14,CC(=O)c1ccc(NC(=O)CSc2ccc(-c3ccco3)nn2)cc1,"inconclusive: 20.6 µM [inhibitor, single point]"
15,Cc1cc2n(n1)CCCN2C(=O)Nc1ccc(C)c(Cl)c1,inactive
16,O=C(Nc1ccccc1)N1CCc2scc[n+]2-c2ccccc21,active: 5.8 µM
17,CCOc1ccc(/C=N/NC(=O)c2ccccc2NC(=O)c2ccc(OC)cc2)cc1,"inconclusive: 29.1 µM [inhibitor, single point]"
18,O=C(N[C@@H]1CCC(=O)N(CC[C@H](Sc2ccc(Br)cc2)c2ccccc2)CC1)OCc1ccccc1,active: 17.8 µM and active: 25.9 µM
19,Cc1ccc2nc(-c3ccc(NC(=O)CN(c4ccccc4C)S(C)(=O)=O)cc3)sc2c1,active: 20.6 µM
20,COc1ccc(C2=CC(c3ccc(OC)c(OC)c3)n3nnnc3N2)c(OC)c1 (stereo not given),"inconclusive: 20.6 µM [inhibitor, single point]"
21,COc1ccc(OC)c(CCNC(=O)c2cc3cccc4c3n2CCS4)c1,"inconclusive: 25.9 µM [inhibitor, single point]"
22,OCCN1CCN(CC#CCC(c2ccccc2)c2ccccc2)CC1,"inconclusive: 23.1 µM [inhibitor, single point]"
23,CC(C)N(C(=O)CSc1ncnc2sc(-c3ccccc3)cc12)C(C)C,"inconclusive: 23.1 µM [inhibitor, single point]"
24,Cc1nc(NC(=O)C2CC3CCCC(C2)C3=O)sc1C (stereo not given),inactive

row,SMILES,Potency
1,COc1ccccc1NC(=O)c1cc(S(=O)(=O)N2CCC3(CC2)OCCO3)ccc1F,"inconclusive: 16.4 µM [inhibitor, single point]"
2,CN(c1ccccc1)S(=O)(=O)c1nnc(NC(=O)c2cccs2)s1,inactive
3,O=C1CC(c2ccccc2)CC(=O)C1Sc1ccc(Cl)cc1 (stereo not given),"inconclusive: 29.1 µM [inhibitor, single point]"
4,CCOC(=O)C1=C(NC(=S)NC(=O)c2ccccc2)c2ccccc2CC1C(C)C (stereo not given),"inconclusive: 29.1 µM [inhibitor, single point]"
5,COC(=O)[C@]12CCCCC=C1N(Cc1ccc3c(c1)OCO3)C(=O)[C@H](CC(=O)NCC1CCCCC1)C2,"inconclusive: 29.1 µM [inhibitor, single point]"
6,CCN(Cc1ccccc1)C(=O)CCS(=O)(=O)c1cc(Br)cc2c1N(C(=O)C1CC1)CC2,"inconclusive: 18.4 µM [inhibitor, single point]"
7,O=C(CSc1nnc(NC(=O)c2ccc3c(c2)OCO3)s1)NCc1ccco1,inactive
8,O=C(O)c1cc(-c2cccnc2)nc2ccccc12,inactive
9,CCOc1ccc(-c2nc(C#N)c(N3CCN(Cc4ccccc4)CC3)o2)cc1,"inconclusive: 29.1 µM [inhibitor, single point]"
10,COc1ccc(OC)c(-c2cc(C(=O)N/N=C/c3cc(OC)c(OC)cc3OC)c3ccccc3n2)c1,active: 16.4 µM
11,CCc1ccccc1N(C)C(=O)c1cc2c(Cl)nc3ccc(C)cc3c2s1,"inconclusive: 29.1 µM [inhibitor, single point]"
12,Cc1ccc2[nH]c3c(=O)n(CC(=O)NCCCN4CCN(c5ccc(F)cc5)CC4)ncc3c2c1,"inconclusive: 29.1 µM [inhibitor, single point] and inconclusive: 9.2 µM [inhibitor, partial curve]"
13,COC(=O)c1sccc1NC(=O)CC1C(=O)NCCN1C(=O)Nc1cc(Cl)ccc1OC (stereo not given),inactive
14,O=C(CN1CCN(c2ccc(O)cc2)CC1)NCC(=O)Nc1ccc(F)c(F)c1F,"inconclusive: 25.9 µM [inhibitor, single point]"
15,CC(=O)c1ccc(S(=O)(=O)N2CCCc3ccccc32)cc1,"inconclusive: 25.9 µM [inhibitor, single point]"
16,COc1ccc(Cc2c(C3CCCCC3)nc3ccc(Cl)cn23)c(C)c1,inactive
17,O=S(=O)(c1ccccc1)N1CCC2(CCCN(c3ccncc3)C2)CC1,active: 2.06 µM
18,CCN(CC)c1ccc(/C=N/Nc2nc3ccccc3[nH]2)c(O)c1,active: 4.61 µM
19,Nc1nnc(SCc2coc(-c3ccc(Cl)cc3)n2)s1,"inconclusive: 16.4 µM [inhibitor, single point]"
20,CC(=O)NCCn1c(SCC(=O)OCc2ccccc2)nc2ccccc2c1=O,"inconclusive: 29.1 µM [inhibitor, single point]"
21,CCOC(=O)CNC(=O)/C(=C\c1ccc(F)cc1)NC(=O)c1ccccc1,inactive
22,CCOc1ccc(Nc2nc(N)nc(CCl)n2)cc1,active: 2.06 µM
23,COc1ccc(N2CCN(C(=O)c3ccccc3N(C)S(=O)(=O)c3ccccc3)CC2)cc1,"inconclusive: 29.1 µM [inhibitor, single point]"
24,COc1ccc(Cl)cc1-c1noc([C@@H]2O[C@H](CO)[C@H](O)[C@H](O)[C@H]2O)n1,"inconclusive: 1.3 µM [inhibitor, full curve]"

row,SMILES,Potency
1,Cc1cc(C(=O)N/N=C/c2ccncc2)c2ccccc2n1,inactive
2,N#Cc1ccccc1Cn1c(=O)n(-c2ccccc2)c(=O)c2c3c(sc21)CCC3,inactive
3,O=C(NCc1cccc(F)c1)C1CCN(c2nn3cc(-c4ccc(F)cc4)nc3s2)CC1,inactive
4,Cc1nn(-c2ccccc2)c2nc(C(F)(F)F)[nH]c(=O)c12,"inconclusive: 16.4 µM [inhibitor, single point]"
5,Cc1onc(-c2ccccc2)c1C(=O)NNC(=S)NC(=O)c1ccc(Cl)cc1Cl,"inconclusive: 29.1 µM [inhibitor, single point]"
6,O=C(OCC(=O)N1CCN(C(=O)c2ccco2)CC1)c1ccccc1Cc1ccccc1,"inconclusive: 7.31 µM [inhibitor, partial curve]"
7,O=C(Nc1ccc(O)c(-c2nc3ccccc3o2)c1)c1ccc(-c2cccc(Cl)c2)o1,"inconclusive: 29.1 µM [inhibitor, single point]"
8,CCOc1ccc(CCNC(=O)C2CCCN(c3nnc(-n4cccc4)s3)C2)cc1OCC (stereo not given),inactive
9,Cc1ccc2nc3c(cc2c1)c(NC(=O)C(C)(C)C)nn3CC(C)C,inactive
10,Cc1cccc(C)c1NC(=O)c1nc(SC(C)C)ncc1Cl,active: 18.4 µM
11,COCCn1c(SCC(=O)N2CCCc3ccccc32)nc2c(c1=O)SC(C)C2 (stereo not given),"inconclusive: 25.9 µM [inhibitor, single point]"
12,CCOc1ccc(-c2c(C)sc3nc[nH]c(=O)c23)cc1,"inconclusive: 29.1 µM [inhibitor, single point]"
13,O=C(N/N=C/C=C\c1ccc([N+](=O)[O-])cc1)c1cccnc1,inactive
14,CC(C)C[C@H](NC(=O)c1[nH]cnc1C(=O)N[C@@H](Cc1ccccc1)C(=O)OCc1ccccc1)C(=O)OCc1ccccc1,"inconclusive: 20.6 µM [inhibitor, single point]"
15,CC1CCN(S(=O)(=O)c2ccc3c(c2)oc(=O)n3CC(=O)N2CCCCC2)CC1,inactive
16,O=C(CNC(=O)c1ccco1)NCC(=O)OCc1ccc(Cl)cc1Cl,inactive
17,Cc1nc(-c2ccc(Cl)cc2)sc1C(=O)CBr,"inconclusive: 18.4 µM [inhibitor, single point]"
18,CC1CN(c2ccc(Oc3ccccc3)cc2)c2nc3c(c(=O)[nH]c(=O)n3C)n2C1 (stereo not given),active: 18.4 µM
19,Cn1cc(Cl)c(C(=O)N/N=C/c2ccc3c4c(cccc24)CC3)n1,"inconclusive: 29.1 µM [inhibitor, single point]"
20,O=C(c1ccc(-c2ccccc2)cc1)C1CCCN(C(=O)c2cncs2)C1 (stereo not given),"inconclusive: 32.6 µM [inhibitor, single point]"
21,CC(OC(=O)Cc1c[nH]c2ccccc12)C(=O)c1ccccc1 (stereo not given),inactive
22,CC(=O)O[C@@]1(C(C)=O)CCC2C3C=C(Cl)C4=CC(=O)CC[C@]4(C)C3CC[C@]21C (stereo not given in full),"inconclusive: 18.4 µM [inhibitor, single point]"
